Experimental data reported in patent US20100203647A1, “Chemical Reporters of Protein Acylation” (THE ROCKEFELLER UNIVERSITY, priority 2008, published 2010).

Tests used:
Jurkat cells = assay: Metabolic labeling with inhibitors; conditions: CHX 10 μM, HMA 1 mM, 2-BP 50 μM, 30 minutes pre-incubation
p300 [1] = biological target: T1, p300 (Homo sapiens, UniProt Q09472); assay: MALDI-TOF analysis of p300-catalyzed acylation of histone H3 peptide in vitro; assay type: biochemical; conditions: 20 μM analog, MS analysis
T1 construct: made in house; host or cells: SF9 insect cells, baculovirus
T1 sequence (Q09472 whole entry): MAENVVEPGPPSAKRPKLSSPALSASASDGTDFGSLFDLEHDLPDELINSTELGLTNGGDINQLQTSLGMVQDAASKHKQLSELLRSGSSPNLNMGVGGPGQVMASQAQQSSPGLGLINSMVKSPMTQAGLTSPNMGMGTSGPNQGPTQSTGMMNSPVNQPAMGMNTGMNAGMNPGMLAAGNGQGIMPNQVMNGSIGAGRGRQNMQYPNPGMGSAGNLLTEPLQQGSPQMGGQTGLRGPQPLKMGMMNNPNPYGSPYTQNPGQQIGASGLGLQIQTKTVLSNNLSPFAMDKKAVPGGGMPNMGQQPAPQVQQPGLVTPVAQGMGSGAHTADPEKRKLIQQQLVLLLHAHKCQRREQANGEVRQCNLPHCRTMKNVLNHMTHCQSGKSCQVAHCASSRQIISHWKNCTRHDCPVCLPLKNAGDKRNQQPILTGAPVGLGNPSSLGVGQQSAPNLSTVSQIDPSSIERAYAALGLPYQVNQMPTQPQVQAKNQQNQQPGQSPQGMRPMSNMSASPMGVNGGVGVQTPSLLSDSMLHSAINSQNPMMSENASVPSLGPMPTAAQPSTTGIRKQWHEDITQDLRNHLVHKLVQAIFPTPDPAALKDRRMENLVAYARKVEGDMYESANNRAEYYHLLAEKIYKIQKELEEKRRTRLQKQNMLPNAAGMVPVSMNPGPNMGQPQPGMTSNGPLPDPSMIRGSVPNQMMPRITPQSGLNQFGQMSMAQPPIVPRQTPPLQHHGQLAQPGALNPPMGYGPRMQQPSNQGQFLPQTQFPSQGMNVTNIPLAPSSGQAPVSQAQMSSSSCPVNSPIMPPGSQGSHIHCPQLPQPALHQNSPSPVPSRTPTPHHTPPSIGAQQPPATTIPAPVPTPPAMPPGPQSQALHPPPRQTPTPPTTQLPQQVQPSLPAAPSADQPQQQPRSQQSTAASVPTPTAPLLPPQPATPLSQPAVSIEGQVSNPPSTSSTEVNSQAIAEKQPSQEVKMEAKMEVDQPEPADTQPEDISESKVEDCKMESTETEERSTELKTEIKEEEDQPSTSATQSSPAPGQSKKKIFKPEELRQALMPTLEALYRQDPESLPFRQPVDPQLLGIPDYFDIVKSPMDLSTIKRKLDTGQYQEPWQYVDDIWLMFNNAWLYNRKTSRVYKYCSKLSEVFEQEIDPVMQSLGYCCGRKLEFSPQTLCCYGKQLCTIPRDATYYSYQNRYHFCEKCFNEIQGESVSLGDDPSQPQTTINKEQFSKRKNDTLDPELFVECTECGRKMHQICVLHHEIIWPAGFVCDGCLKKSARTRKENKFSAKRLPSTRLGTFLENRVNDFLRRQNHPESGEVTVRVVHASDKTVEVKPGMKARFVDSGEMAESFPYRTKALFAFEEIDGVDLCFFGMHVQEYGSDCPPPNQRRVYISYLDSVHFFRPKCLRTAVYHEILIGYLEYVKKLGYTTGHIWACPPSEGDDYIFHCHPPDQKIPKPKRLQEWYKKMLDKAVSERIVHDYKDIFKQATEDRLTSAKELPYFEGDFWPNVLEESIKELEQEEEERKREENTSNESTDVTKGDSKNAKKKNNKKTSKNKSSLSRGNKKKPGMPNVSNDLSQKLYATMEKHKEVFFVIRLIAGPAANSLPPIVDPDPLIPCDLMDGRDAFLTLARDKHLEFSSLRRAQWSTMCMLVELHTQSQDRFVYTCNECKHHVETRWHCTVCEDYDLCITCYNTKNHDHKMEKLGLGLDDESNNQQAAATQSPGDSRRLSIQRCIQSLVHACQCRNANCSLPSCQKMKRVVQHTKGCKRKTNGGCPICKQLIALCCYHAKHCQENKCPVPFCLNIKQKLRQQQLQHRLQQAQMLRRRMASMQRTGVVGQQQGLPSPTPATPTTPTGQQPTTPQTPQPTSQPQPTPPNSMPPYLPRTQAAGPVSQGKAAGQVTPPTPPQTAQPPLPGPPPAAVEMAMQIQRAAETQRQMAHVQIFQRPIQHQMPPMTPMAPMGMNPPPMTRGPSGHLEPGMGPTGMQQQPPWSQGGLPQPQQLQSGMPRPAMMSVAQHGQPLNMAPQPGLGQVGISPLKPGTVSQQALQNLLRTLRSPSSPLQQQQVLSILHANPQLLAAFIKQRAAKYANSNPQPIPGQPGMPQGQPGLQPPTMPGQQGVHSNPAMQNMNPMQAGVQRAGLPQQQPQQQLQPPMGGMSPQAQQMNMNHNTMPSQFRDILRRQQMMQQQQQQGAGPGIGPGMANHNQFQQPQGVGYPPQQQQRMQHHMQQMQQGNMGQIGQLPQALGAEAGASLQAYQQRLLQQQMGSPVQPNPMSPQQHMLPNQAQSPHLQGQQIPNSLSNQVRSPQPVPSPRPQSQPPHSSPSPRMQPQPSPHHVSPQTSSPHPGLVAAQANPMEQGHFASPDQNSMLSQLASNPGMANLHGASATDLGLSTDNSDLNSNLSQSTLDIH
Method: Cells were lysed in lysis buffer (20 mM Tris, pH 7.5, 500 mM NaCl, 4 mM MgCl2, 0.4 mM EDTA, 20% glycerol, 2 mM DTT, and supplemented with protease inhibitors). Clarified cell lysates were diluted to 300 mM NaCl, and NP-40 was added to 0.1% final concentration. Flag M2 agarose resin (Sigma) was added to the lysate and incubated for 4 hours at 4° C. […] Protein concentration and purity were estimated by comparison to BSA standards on SDS gels stained with Gelcode Blue stain (Pierce).

p300 [2] = biological target: T1, p300; assay: In vitro acylation of histone H3 protein by p300 and mapping of modification sites (spectral counts, nano-HPLC/MS/MS); assay type: biochemical
Method: Following the in vitro reaction, proteins were separated on 15% SDS-PAGE and stained with coomassie brilliant blue R-250 staining solution (Bio-Rad). The gel slices containing histone H3 products were excised from each lane, washed with 50 mM ammonium bicarbonate (ABC) twice, destained with 50 mM ABC/CH3CN (50/50) twice and dehydrated with CH3CN. After drying the gel slices in a SpeedVac, gel slices were rehydrated with trypsin solution (2 μg of trypsin for each vial/gel slice) and incubated in 37° C. water bath for 18 hrs. Trypsin-digested peptides in solution were collected, dried in SpeedVac, resuspended in H2O (with 0.1% TFA) and submitted samples to nano-HPLC/MS/MS analysis (Thermo LTQ-Orbitrap in the Proteomic Resource Center at Rockefeller University).
LC-MS analysis was performed with a Dionex 3000 nano-HPLC coupled to an LTQ-Orbitrap ion trap mass spectrometer (ThermoFisher). Peptides were pressure loaded onto a home made 75 μm diameter, 15 cm C18 reverse phase column and separated with a gradient running from 95% buffer A (HPLC water with 0.1% formic acid) and 5% buffer B (HPLC grade acetonitrile with 0.1% formic acid) to 55% B over 30 min, next ramping to 95% B over 10 min and holding 95% B for 10 min. One full MS scan (300-2000 MW) was followed by 3 data dependent scans of the nth most intense ions with dynamic exclusion enabled. The spray voltage was set to 1.94 kV and the flow rate through the column was set to 0.25 μL/min.
Raw tandem mass spectra were searched against the human IPI protein database version 3.56 using SEQUEST search engine (Thermo Scientific). Cysteine carbamido-methylation was searched as fixed modification, while methionine/tryptophan oxidation, asparagines/glutamine deamindation, lysine/serine/threonine/cysteine acetylation, N-terminal acetylation/3-butynylation/4-pentynylation/5-hexynylation and lysine 3-butynylation/4-pentynylation/5-hexynylation were searched as variable modifications. Peptide tolerance was set as 10.0 ppm, fragment ion tolerance was set as 1.0 AMU and trypsin was set as the digestion enzyme. The resulting searching files were then analyzed and visualized by Scaffold 2 proteome software.
Each identified protein must contain at least 2 unique peptides that are exclusively assigned to this protein with a minimum protein identification probability of 99%. Each peptide spectrum must meet several selection thresholds including >95% for peptide identification probability, >1.0 for SEQUEST XCorr score, and ±6 ppm for actual minus calculated peptide mass.

p300 [3] = biological target: T1, p300; assay: In-gel fluorescent detection of p300-catalyzed in vitro acylation of histone H3; assay type: biochemical; conditions: CuAAC with az-Rho, in-gel fluorescence
Source text: CuAAC reactions were allowed to proceed at room temperature for 1 hr, and proteins were subsequently separated on 15% SDS-PAGE. The gels were soaked in destaining solution (40% MeOH, 10% AcOH, 50% H2O) for 1-2 hrs to remove the non-covalently bound az-Rho dye. After washing with dd H2O, the gel was subjected to in-gel fluorescence scanning.

[4] = Absorbance and fluorescence studies of clickable CyFur dyes; assay type: physicochemical
Method: Absorbance and fluorescence studies. Absorption spectra and fluorescence data were collected on SpectraMax M2 multi-detection reader (Molecular Devices). The spectra in solution were obtained at 25° C. using a quartz cuvette with a path length of 1 cm. Fluorescence quantum yields (ΦF) of CyFur dyes were determined against cresyl violet (ΦF=0.54 in methanol).

[5] = system: acetylated proteins such as histones; assay: Metabolic labeling of acetylated proteins with very short chain alkynyl-chemical reporters, in-gel fluorescence; assay type: cell-based, human
M. smegmatis = assay: Labeling of acylated proteins in bacterial cells with alkynyl-chemical reporters; assay type: cell-based
[6] = lysine-modified peptide, H3 + acyl-CoA + p300
[7] = lysine-modified peptide, H3 + acyl-CoA, without p300

Q: For `CCCCCCCCCCCCC(O)C(=O)O` (centres unmarked) [HMA, 2-hydroxymyristic acid, reference compound], which “effect of inhibitor on alkynyl-fatty acid protein labeling (alk-12, alk-14, alk-16, 20 μM)” value (Jurkat cells) is on record?
A: selectively blocked alk-12 protein labeling compared to alk-14 and alk-16

Q: For `C#CCCC(=O)SCCNC(=O)CCNC(=O)[C@H](O)C(C)(C)COP(=O)(O)OP(=O)(O)OC[C@H]1O[C@@H](n2cnc3c(N)ncnc32)[C@H](O)[C@@H]1OP(=O)(O)O` [Analog 2], which “utilization as acyl-CoA donor for p300-catalyzed acylation of histone H3 peptide” value (p300 [1]) is on record?
A: readily utilized by p300

Q: And the “Spectral Counts of Peptide EIAQDFK (73-79) (SEQ ID NO: 7)” value (p300 [2]; H3 + acyl-CoA + p300)?
A: 25

Q: What about the “Spectral Counts of Peptide KSAPATGGVK (27-36) (SEQ ID NO: 2)” value (p300 [2]; H3 + acyl-CoA + p300) of the same compound?
A: 17

Q: And the “Spectral Counts of Peptide SAPATGGVK (28-36) SEQ ID NO: 3” value (p300 [2]; H3 + acyl-CoA + p300)?
A: 7

Q: And the “Spectral Counts of Peptide VTIMPK (117-122) (SEQ ID NO: 9)” value (p300 [2]; H3 + acyl-CoA + p300)?
A: 4

Q: What about the “Spectral Counts of Peptide YRPGTVALR (41-49) (SEQ ID NO: 4)” value (p300 [2]; H3 + acyl-CoA + p300) of the same compound?
A: 3

Q: And the “Spectral Counts of Peptide EIAQDFK (73-79) (SEQ ID NO: 7)” value (p300 [2]; H3 + acyl-CoA, without p300)?
A: 27

Q: And the “Spectral Counts of Peptide KLPFQR (64-69) (SEQ ID NO: 6)” value (p300 [2]; H3 + acyl-CoA, without p300)?
A: 1

Q: And the “Spectral Counts of Peptide KSAPATGGVK (27-36) (SEQ ID NO: 2)” value (p300 [2]; H3 + acyl-CoA, without p300)?
A: 23

Q: And the “Spectral Counts of Peptide SAPATGGVK (28-36) SEQ ID NO: 3” value (p300 [2]; H3 + acyl-CoA, without p300)?
A: 9

Q: And the “Spectral Counts of Peptide VTIMPK (117-122) (SEQ ID NO: 9)” value (p300 [2]; H3 + acyl-CoA, without p300)?
A: 5

Q: What about the “Spectral Counts of Peptide YRPGTVALR (41-49) (SEQ ID NO: 4)” value (p300 [2]; H3 + acyl-CoA, without p300) of the same compound?
A: 2

Q: And the “Spectral Counts of Peptide KQLATK (18-23, K18) (SEQ ID NO: 13)” value (p300 [2]; [6])?
A: 10

Q: And the “Spectral Counts of Peptide KQLATKAAR (18-26, K18, K23) (SEQ ID NO: 15)” value (p300 [2]; [6])?
A: 18

Q: What about the “Spectral Counts of Peptide KQLATKAAR (18-26, K23) (SEQ ID NO: 14)” value (p300 [2]; [6]) of the same compound?
A: 3

Q: What about the “Spectral Counts of Peptide KSAPATGGVK (27-36, K27) (SEQ ID NO: 17)” value (p300 [2]; [6]) of the same compound?
A: 25

Q: What about the “Spectral Counts of Peptide KSTGGKAPR (9-17, K9, K14) (SEQ ID NO: 11)” value (p300 [2]; [6]) of the same compound?
A: 12

Q: And the “Spectral Counts of Peptide KSTGGKAPR (9-17, K14) (SEQ ID NO: 10)” value (p300 [2]; [6])?
A: 16

Q: And the “Spectral Counts of Peptide STGGKAPR (10-17, K14) (SEQ ID NO: 12)” value (p300 [2]; [6])?
A: 9

Q: What about the “Spectral Counts of Peptide KQLATKAAR (18-26, K23) (SEQ ID NO: 14)” value (p300 [2]; [7]) of the same compound?
A: 1

Q: What about the “Spectral Counts of Peptide KSAPATGGVK (27-36, K27) (SEQ ID NO: 17)” value (p300 [2]; [7]) of the same compound?
A: 3

Q: And the “visualization of p300-acylation of histone H3” value (p300 [3])?
A: serve as sensitive reagents for visualizing p300-acylation of histone H3

Q: Which “absorption (abs) maxima” value [4] does the source give for `CC1(C)OC(=C(C#N)C#N)C(C#N)=C1/C=C/c1ccc(NC(=O)CCCCCN=[N+]=[N-])cc1` [az-CyFur-2, (E)-6-azido-N-(4-(2-(4-cyano-5-(dicyanomethylene)-2,2-dimethyl-2,5-dihydrofuran-3-yl)vinyl)phenyl)hexanamide] here?
A: 470 nm

Q: And the “emission (em) maxima” value [4]?
A: 580 nm

Q: And the “εmax^b (M^−1cm^−1)” value ([4]; in MeOH, at 470 nm for az-CyFur-1, az-CyFur-2 and at 580 nm for alk-CyFur, averaged over three independent experiments)?
A: 12,100 M^−1cm^−1

Q: And the “ΦF^c” value ([4]; quantum yield referenced against cresyl violet, alk-CyFur excited at 580 nm, az-CyFur-1 and az-CyFur-2 at 470 nm)?
A: 0.0027

Q: What about the “λmax^a (nm) (first column)” value ([4]; spectra obtained in DMSO) of the same compound?
A: 470 nm

Q: And the “λmax^a (nm) (second column)” value ([4]; spectra obtained in DMSO)?
A: 580 nm

Q: For `C#CCCC(=O)O` [alk-3, pent-4-ynoic acid], which “labeling of acetylated proteins” value [5] is on record?
A: found to label acetylated proteins such as histones

Q: What about the “labeling of proteins in bacterial cells” value (M. smegmatis) of the same compound?
A: labeled distinct proteins

Q: With `CC1(C)OC(=C(C#N)C#N)C(C#N)=C1/C=C/c1ccc(NCCc2cn(CCOC(=O)Nc3ccc(/C=C/C4=C(C#N)C(=C(C#N)C#N)OC4(C)C)cc3)nn2)cc1` [fluorophore 3, 2-(4-(2-(4-((E)-2-(4-cyano-5-(dicyanomethylene)-2,2-dimethyl-2,5-dihydrofuran-3-yl)vinyl)phenylamino)ethyl)-1H-1,2,3-triazol-1-yl)ethyl 4-((E)-2-(4-cyano-5-(dicyanomethylene)-2,2-dimethyl-2,5-dihydrofuran-3-yl)vinyl)phenylcarbamate] as the compound, how does the “fluorescence emission (FRET)” value ([4]; excitation at 410 nm) read?
A: 640 nm
